# Measured values as given in PubChem BioAssay AID1645882 (National Center for Advancing Translational Sciences (NCATS), 2021).
# Among all 16,000 compounds or so, about 120 (0.75%) were called active. Not shown: some 4% with an inconclusive outcome. Calls come from the whole dose curve; as a rule, active = well fitted inhibition curve with a large enough effect; inconclusive = small, poorly fitted or top-dose-only effect; inactive = no such curve, though single readings can be large or run the other way. Some of the results follow.
# Molecular target: Rap guanine nucleotide exchange factor 3 (Homo sapiens) (UniProt O95398)
# Assay: Validation qHTS for antagonist of cAMP-regulated guanine nucleotide exchange factor 3 (EPAC1); note: nearly all actives have a fitted effect of over 75% in size;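 for activity change, negative = inhibition: plate controls were DMSO for no effect and ATA control for full effect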
# Details: EPAC1 Rap1B-BODIPY-GDP exchange, fluorescence; series mostly up to 150 µM; activity change, negative = inhibition: at the top concentration
# Summary of the method: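 EPAC1 (100 nM) mixed with 250 nM RAP1B-BODIPY-GDP and 50 uM GDP; compounds in concentration series, 5 min at room temperature. Fluorescence (ex 480/em 540 nm) read every 5 min for 30 min; normalized to ATA control and DMSO.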
# Potency is the fitted concentration of half-maximal effect.
# Sequence of UniProt O95398 (O95398 whole entry, looked up): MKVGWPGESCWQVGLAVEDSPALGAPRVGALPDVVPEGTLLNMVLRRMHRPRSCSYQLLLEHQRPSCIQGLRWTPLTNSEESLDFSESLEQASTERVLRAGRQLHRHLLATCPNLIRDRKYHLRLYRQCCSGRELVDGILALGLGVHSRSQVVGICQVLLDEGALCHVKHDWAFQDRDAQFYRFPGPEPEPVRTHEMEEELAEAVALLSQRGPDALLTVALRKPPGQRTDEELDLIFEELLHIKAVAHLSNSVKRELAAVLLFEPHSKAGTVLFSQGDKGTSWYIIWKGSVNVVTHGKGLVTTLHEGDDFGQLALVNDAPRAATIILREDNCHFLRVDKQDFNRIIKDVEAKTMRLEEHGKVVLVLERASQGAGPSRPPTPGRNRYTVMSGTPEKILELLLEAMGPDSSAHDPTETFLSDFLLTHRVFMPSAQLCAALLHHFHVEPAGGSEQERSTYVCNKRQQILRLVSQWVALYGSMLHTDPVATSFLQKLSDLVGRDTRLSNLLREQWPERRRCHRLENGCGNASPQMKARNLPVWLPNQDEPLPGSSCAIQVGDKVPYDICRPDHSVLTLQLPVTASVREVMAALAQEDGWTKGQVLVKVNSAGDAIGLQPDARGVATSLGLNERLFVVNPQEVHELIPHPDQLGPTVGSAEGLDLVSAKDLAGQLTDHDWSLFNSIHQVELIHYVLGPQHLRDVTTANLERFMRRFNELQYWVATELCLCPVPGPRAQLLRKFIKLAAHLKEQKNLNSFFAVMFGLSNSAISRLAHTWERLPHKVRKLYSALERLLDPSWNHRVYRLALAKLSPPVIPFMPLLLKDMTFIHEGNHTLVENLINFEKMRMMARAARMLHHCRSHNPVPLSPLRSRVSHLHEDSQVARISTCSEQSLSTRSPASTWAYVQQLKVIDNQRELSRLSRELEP
Structure (SMILES),"activity change, negative = inhibition",Potency
CNC(=O)Oc1ccc2c(c1)C1(C)CCN(C)C1N2C (stereo unspecified),inactive: 5.85%,–
FC(F)(F)c1cccc(-c2cn[nH]c2C2CCCN(Cc3cccn3-c3ccccn3)C2)c1 (stereo unspecified),inactive: 13.2%,–
COc1cccc(C(=O)CC2c3c(c(Br)c4c(c3OC)OCO4)CCN2C)c1 (stereo unspecified),inactive: 9.02%,–
c1cc2cc(-c3c(-c4ccc5c(c4)OCO5)noc3-c3ccsc3)ccc2[nH]1,inactive: -9.47%,–
CCC1CN(CCC(=O)N2CCCN(C(=O)c3ccco3)CC2)Cc2cc(OC)ccc2O1 (stereo unspecified),inactive: 27.4%,–
COc1ccc2c(c1)CCC1C2CC[C@@]2(C)C(O)CCC12 (stereo partly specified),inactive: 13.4%,–
CN1CCC(OC(=O)C(Oc2ccc(Cl)cc2)Oc2ccc(Cl)cc2)CC1,inactive: 9.93%,–
CC(C)OC(=O)OCOP(=O)(CO[C@H](C)Cn1cnc2c(N)ncnc21)OCOC(=O)OC(C)C,inactive: 12.7%,–
CN(C)C(=O)/N=N/C(=O)N(C)C,inactive: -1.37% [at 75.8 µM],–
CCNc1ncc2ncc(=O)n(C)c2n1,inactive: 5.2%,–
Cc1ccc(S(=O)(=O)NC(=O)N[C@@H](C)Cc2ccccc2)cc1,inactive: 14.6%,–
Nc1cc(Cl)c(NC2=NCCN2)c(Cl)c1,inactive,–
C[C@@]12CCC[C@H]1[C@@H]1CC[C@H]3C[C@@H](O)CC[C@]3(C)[C@H]1CC2,inactive: 0.626%,–
Cc1ccccc1-c1nc(Nc2ccncc2)c2ccccc2n1,inactive: 13.2%,–
Cn1nc(C(=O)NCCN2Cc3ccccc3OC(c3ccsc3)C2)c2ccccc2c1=O (stereo unspecified),inactive: 7.27%,–
O=C1[C@H](Cc2ccccc2)NCCCC[C@H](c2ccc(Cl)cc2)N1Cc1ccc(Cl)cc1,inactive: -13.9%,–
OC1(c2cccnc2)CCN(Cc2ccc3c(c2)CN(Cc2cccc(C(F)(F)F)c2)CCO3)CC1,inactive: -10.8%,–
O=C(Nc1ccc(Cl)cc1Cl)[C@@H]1CC=C[C@@H]2CCN(C3CC3)C(=O)[C@@H]21,inactive: 5.79%,–
O=C(c1cccc(F)c1F)N1CCOc2ccc(CN3CCC(Oc4cccnc4)CC3)cc2C1,inactive: -3.14%,–
O=C(c1cccc(F)c1)N1CCC2(CC1)CN(c1ccccc1)C2,inactive: 9.74%,–
C=C1c2cccc(O)c2C(O)=C2C(=O)[C@]3(O)C(O)=C(C(N)=O)C(=O)[C@@H](N(C)C)[C@@H]3[C@@H](O)[C@H]12,–,active: 31.6 µM
COCC(=O)N1CCC2(CC1)CN(c1ccccc1)C2,inactive: 25.9%,–
CC(C)(C)c1ccc(C(=O)C[n+]2cccc(Br)c2)cc1,inactive: 21.9%,–
Cc1ccc2c(c1)CN(CCNC(=O)c1cccc(Cn3cccn3)c1)CC(C)O2 (stereo unspecified),inactive: -2.09%,–
O=C(c1cnccn1)N1CCC[C@@]2(CCN(c3cccc(-c4ccccc4)c3)C2)C1,inactive: -17.7%,–
COCCn1c(=O)c(-c2ccccc2)nc2cnc(OC)nc21,inactive: -6.29%,–

Structure (SMILES),"activity change, negative = inhibition",Potency
CC(=O)NCCNc1nc(-c2ccccc2C)nc2ccccc12,inactive: 6.7%,–
COCC(=O)Nc1cc(C(=O)N2CC3(C)CC2CC(C)(C)C3)c2c(c1)nc(-c1ccncc1)n2C (stereo unspecified),inactive: -8.81%,–
O=C(O)c1cc2cc(Cc3cccnc3)ccc2o1,inactive,–
CCCCNC(=O)[C@@H]1CC=C[C@@H]2CCN(CCCC)C(=O)[C@@H]21,inactive: -7.72%,–
CCC1COCCS(=O)(=O)N1Cc1ccccc1F (stereo unspecified),inactive: -11.3%,–
COCCNC(=O)COc1ccc(OCCNC[C@@H](O)COc2ccccc2)cc1,inactive: 1.72%,–
O=C(O)c1cc(N(Cc2ccccc2O)Cc2cc(O)ccc2O)ccc1O,inactive: -9.43%,–
COc1ccccc1CCn1c(=O)c(C)nc2cncnc21,inactive: 18.8%,–
CC1(C)CC2C1CC[C@]1(C)CCC3C(C(=O)O)CC(=O)O[C@]32C1 (stereo partly specified),inactive: -9.02%,–
COc1ccc(-n2c(=O)c(-c3ccc(F)cc3)nc3cncnc32)cc1,inactive: 0.407%,–
CC(=O)C[C@H]1c2ccccc2S(=O)(=O)N1c1ccccc1,inactive: 5.62%,–
COC(=O)N1CCC[C@@]2(CCN(C(c3ccccc3)c3ccccc3)C2)C1,inactive: -1.54%,–
COCC(=O)N1CCC[C@@]2(CCN(c3ccccc3)C2)C1,inactive: -3.78%,–
CCc1cccc(CC)c1NC(=O)CN(CC(=O)O)CC(=O)O,inactive: 6.5% [at 75.8 µM],–
C[N+]1(C)[C@@H]2CC(OC(=O)C(O)(c3cccs3)c3cccs3)C[C@H]1[C@@H]1O[C@@H]12 (stereo partly specified),inactive: 4.19%,–
C=C[C@](C)(O)CCC1C(=C)CCC2[C@@](C)(CO)CCC[C@@]12C (stereo partly specified),inactive: 2.31%,–
CN(CC(=O)O)c1ccc(/C=C2\C=Cc3ccccc32)cc1,inactive,–
CC(=O)OC[C@@]1(O)C[C@]23CCC4c5ccoc5CC[C@@]4(C)C2CCC1C3 (stereo partly specified),inactive: 7.17%,–
N#Cc1cccc(-c2nc3cnc(Oc4cccc(Cl)c4)nc3n(C3CC3)c2=O)c1,inactive: 8.41%,–
Cc1nc(NCc2c(C)nn(C)c2Cl)sc1-c1ccn(CC2COc3ccccc3O2)n1 (stereo unspecified),inactive: 2.4%,–
CCOc1ccc(C(=O)OCCN(CC)CC)cc1,inactive: -4.19%,–
CC1CCN=C(N)S1 (stereo unspecified),inactive: 3.48% [at 75.8 µM],–
CCCCCCCCCCCCCCCC(=O)O,inactive: 26.2%,–
Cc1ncoc1C(=O)N1CCOc2ccc(CN3CCC(Oc4cccnc4)CC3)cc2C1,inactive: 4.52%,–
COc1cc(=O)n2c(c1C(=O)NCc1ccco1)CCN(Cc1ccc3nsnc3c1)CC2,inactive: 18.1%,–
C/C(=C\C(=O)OCCCCCCCCC(=O)O)C[C@@H]1OC[C@H](C[C@@H]2O[C@H]2[C@@H](C)[C@H](C)O)[C@@H](O)[C@H]1O,inactive: 10.4%,–

Structure (SMILES),"activity change, negative = inhibition",Potency
O=S(=O)(c1ccccc1)N1CCC[C@@]2(CCN(c3ccncc3)C2)C1,inactive: 19.1%,–
CC1O[C@@H](O[C@H]2C(Oc3cc(O)c4c(=O)cc(-c5ccc(O)cc5)oc4c3)OC(CO)C(O)C2O)C(O)C(O)C1O (stereo partly specified),inactive: 8.06%,–
COc1ncc2nc(C)c(=O)n(C)c2n1,inactive: 16.8%,–
CNc1ncnc2ccc(-c3ccccc3C)cc12,inactive: 11.4%,–
O=c1c(-c2cccs2)nc2cnc(N3CCNCC3)nc2n1CCc1ccccc1,inactive: -0.878%,–
COc1ccc2[nH]cc(CCNc3ncnc4ccc(-c5ccoc5)cc34)c2c1,inactive: -0.401%,–
CC1(C)OC2CC3C4CC(F)C5=CC(=O)CC[C@@]5(C)C4C(O)C[C@@]3(C)[C@]2(C(=O)CO)O1 (stereo partly specified),inactive: 8.09%,–
COc1ncc2nc(-c3cc(F)cc(F)c3)c(=O)n(Cc3cccs3)c2n1,inactive: -1.47%,–
CC/C(=C/c1ccccc1)c1cc(Oc2ccccc2)cc2oc3ccccc3c12,inactive: -25.4%,–
C=C[C@@]1(C)CC(=O)[C@@]2(O)[C@@]3(C)[C@@H](O)CCC(C)(C)[C@@H]3[C@H](OC(=O)CCN(C)C)[C@H](OC(C)=O)[C@@]2(C)O1,inactive: 4.09%,–
O=C(NCc1ccccn1)c1cnn(-c2nccc(-c3cccs3)n2)c1C1CC1,inactive: 13.1%,–
CCCCC/C=C\C/C=C\C/C=C\C/C=C\CCCC(=O)O[C@@H](CO)COCCCCCCCCCCCCCCCC,inactive: 21.6% [at 15.3 µM],–
Cc1cc(-c2ccnc(-n3ncc(C(=O)NCCc4cccnc4)c3C)n2)c(C)s1,inactive: 6.29%,–
CN1CCN(c2ncncc2-c2ccc(N(C)C)cc2)CC1,inactive: 9.3%,–
O=c1oc2cc(O)ccc2s1,inactive: -7.73%,–
NNc1nnc(NN)c2ccccc12,inactive: 6.16%,–
Cc1oc(-c2ccccc2NC(=O)c2ccccc2)nc1CNC(=O)c1c(-c2ccccc2)noc1C,inactive: 0.479%,–
COc1cc2ncnc(Nc3cccc(Cl)c3)c2cc1OC,inactive,–
OCc1nc2ccc(Cl)cc2[nH]1,inactive: 12.5%,–
O=C(c1cccnc1)C1CCCN(Cc2ccc3c(c2)CN(C(=O)c2cccs2)CCO3)C1 (stereo unspecified),inactive: 7.59%,–
CO/N=C(/C(=O)N[C@@H]1C(=O)N2C(C(=O)O)=C(Cn3nnc(C)n3)CS[C@H]12)c1csc(N)n1,inactive: 226%,–
N[C@H](CCC(=O)N[C@H](CSN=O)C(=O)NCC(=O)O)C(=O)O,inactive: 9.06%,–
COc1ccc2cc(CNC3CCS(=O)(=O)C3)c(-c3ccc(OC)c(OC)c3)nc2c1 (stereo unspecified),inactive: 6.02%,–
COc1ccc(Oc2ncc3nc(-c4ccc(Cl)cc4)c(=O)n(C)c3n2)cc1,inactive: -0.348%,–
O=C(O)c1ccccc1O,inactive,–
COc1ccc(-c2nc3cnc(N4CCOCC4)nc3n(C3CC3)c2=O)cc1,inactive: 19.2%,–

Structure (SMILES),"activity change, negative = inhibition",Potency
Cc1c(O)cc2c(c1C)O[C@](C)(CCC[C@H](C)CCC[C@H](C)CCCC(C)C)CC2,inactive: -11.5%,–
COc1ccc(-c2cccc3c2OC(CNC(=O)c2ccc4c(c2)OCO4)C3)nn1 (stereo unspecified),inactive: 5.4%,–
COCCn1c(=O)c(-c2ccccc2)nc2cnc(N(C)C)nc21,inactive: 14.9%,–
CC(C)c1nc(N(C)S(C)(=O)=O)nc(-c2ccc(F)cc2)c1/C=C/C(O)CC(O)CC(=O)O (stereo unspecified),inactive: 8.87%,–
CCOC(=O)c1cnc2c(cnn2CC)c1NN=C(C)C,inactive,–
C[C@@H]1C[C@H]2[C@@H]3CCC4=CC(=O)C=C[C@]4(C)[C@@]3(Cl)[C@@H](O)C[C@]2(C)[C@@]1(OC(=O)c1ccco1)C(=O)CCl,inactive: 7.4% [at 75.8 µM],–
COc1ccc(-n2c(=O)c(-c3cc(F)cc(F)c3)nc3cnc(N4CCNCC4)nc32)cc1,inactive: 9.62%,–
CN1CCCN(C(c2ccccc2)c2ccc(Cl)cc2)CC1 (stereo unspecified),inactive: 14.5%,–
CCOC(=O)[C@H](CCc1ccccc1)N[C@@H](C)C(=O)N1C(=O)N(C)C[C@H]1C(=O)O,inactive: 3.42%,–
COCCn1c(=O)c(C)nc2cncnc21,inactive: 16.7%,–
CNc1nc(-c2ccccc2C)nc2ccccc12,inactive: -8.15%,–
O=C(O)[C@H](CC(=O)N1C[C@H]2CCCC[C@H]2C1)Cc1ccccc1,inactive: 22.6%,–
N[C@H](C(=O)O)c1ccc(O)cc1,inactive: 4.08%,–
CN1CCN(c2ncc3nc(-c4cccc(C#N)c4)c(=O)n(C[C@H]4CCCO4)c3n2)CC1,inactive: 5.76%,–
CC(C)(CO)NC(=O)c1cnn(-c2ncc3c(n2)-c2ccccc2CC3)c1C1CC1,inactive: -12.3%,–
CCOc1ccc2nc(S(N)(=O)=O)sc2c1,inactive: 3.86%,–
Nc1ncnc2c1ncn2C1OC(COP(=O)(O)O)C(O)C1O (stereo unspecified),inactive: 13.4%,–
O=C(c1cnccn1)N1CCC2(CC1)CN(Cc1cc(C(F)(F)F)cc(C(F)(F)F)c1)C2,inactive: -9.25%,–
CN(C)c1ccc(-c2nccc(NCCN3CCOCC3)n2)cc1,inactive: 9.12%,–
CN(C)C(=O)c1ccc(-c2cc(NCc3cccs3)ncn2)cc1,inactive: 8.09%,–
NCCCCNS(=O)(=O)c1ccc2c(Cl)cccc2c1,inactive: 3.49%,–
CSc1nnc(CCNC(=O)c2ccccc2C(F)(F)F)n1-c1ccc(F)cc1,inactive: 26.2%,–
CCc1c(C)c2ccccc2[nH]c1=O,inactive: 24.8%,–
